# Laboratory results: PubChem BioAssay AID1240 (Sanford-Burnham Center for Chemical Genomics, 2008)
# In all, about 50,000 compounds went through this assay and about 800 (1.6%) showed an effect of 50% or more. Some of the results follow.
# Target: Bcl-2-like protein 10 (Homo sapiens) (UniProt Q9HD36)
# Assay: TR3 peptide-Bcl-B binding displacers, biochemical primary FP assay, phenotype converters (AID 1240);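 note: 0% = Bcl-B with tracer peptide and DMSO and 100% = tracer peptide lacking Bcl-B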
# Conditions: GST-Bcl-B / FITC-TR3 peptide fluorescence polarization; stronger effect = higher value; compound at 3.75 mg/L
# Chain of UniProt Q9HD36 (Q9HD36 whole entry, looked up): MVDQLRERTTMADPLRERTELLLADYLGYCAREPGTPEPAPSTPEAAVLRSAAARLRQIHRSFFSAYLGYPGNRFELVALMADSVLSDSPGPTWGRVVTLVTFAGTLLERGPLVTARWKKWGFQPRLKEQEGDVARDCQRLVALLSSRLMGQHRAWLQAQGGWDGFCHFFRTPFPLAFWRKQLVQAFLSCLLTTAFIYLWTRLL
row,SMILES,displacement [%]
1,COC(=O)C(C(=O)OC)C1=C/C(=N/S(=O)(=O)c2ccc(C)cc2)c2ccccc2C1=O,19
2,Cn1c(O)c(N=Nc2ccc(Br)cc2)c(=O)[nH]c1=O,-8.8
3,O=[N+]([O-])c1cccc(S(=O)(=O)NCc2ccc(F)cc2)c1,-7.2
4,COc1ccc(C2/C(=C(\O)c3ccc(C)cc3)C(=O)C(=O)N2c2ncc(S(=O)(=O)c3ccc([N+](=O)[O-])cc3)s2)cc1 (centres undefined),10.8
5,CCOc1ccc(N2C(=O)/C(=C/c3ccc(N(CC)CC)o3)C(=O)NC2=S)cc1,10.7
6,COc1ccccc1N1CCN(/N=C\c2ccc(Cl)cc2Cl)CC1,4.6
7,Cc1ccc(C)c(COc2cc3oc(=O)c4c(c3cc2Cl)CCC4)c1,14.1
8,CCCC1=NN(C(=O)c2cccc(Cl)c2)C(O)(C(F)(F)F)C1 (centres undefined),0.2
9,CCCC(=O)N1CCN(c2ccc(C(=O)CC)cc2F)CC1,-16.4
10,COc1cccc(CN2CCN(C3CCC(C)CC3)CC2)c1 (centres undefined),17.9
11,Clc1ccc(-c2noc(-c3ccc(Cl)cc3Cl)n2)cc1,4.3
12,COc1cccc(/C=C2/C=C(c3ccc(C)cc3)OC2=O)c1OC(C)=O,-2.2
13,CCc1ccccc1NC(=O)c1ccc(CN(c2cccc(Cl)c2)S(C)(=O)=O)cc1,-1
14,O=C1c2ccccc2C(=O)c2c([N+](=O)[O-])ccc(N3CCCCC3)c21,17.9
15,CC(C)=C(NC(=O)c1ccccc1)C(=O)N1CCCCC1,6.9
16,O=C1/C(=C/c2ccc(I)cc2)SC(=S)N1c1ccc([N+](=O)[O-])cc1,5.5
17,O=C1CCC([N+](=O)[O-])C(c2ccc(Cl)c(Cl)c2)N1 (centres undefined),0.5
18,O=C(/C=C/c1ccco1)c1c(-c2ccccc2)c2cc(Cl)ccc2[nH]c1=O,-38.2
19,CCOc1ccccc1C1Nc2ccccc2NC2=C1C(=O)CC(C)(C)C2 (centres undefined),1.7
20,CC(NS(=O)(=O)c1ccc(F)cc1)c1ccccc1 (centres undefined),-5.1
21,Cc1ccc(C(=O)Nc2nc(-c3cccc4ccccc34)cs2)o1,-4.4
22,Cc1csc(NC(=O)c2ccc(C)c([N+](=O)[O-])c2)n1,-1.3
23,O=C(NN1C(=O)c2ccccc2C1=O)c1ccccc1O,14.5

row,SMILES,displacement [%]
1,O=C(Nc1ncccc1Cl)C1CCCO1 (centres undefined),9.4
2,CCOC(=O)c1c(NC(=O)Cc2ccc(OC)cc2)sc(C(=O)Nc2ccc(C)c(Cl)c2)c1C,3
3,COc1ccc(C(=O)Nc2ccc(O)c(-c3nc4cc(Cl)ccc4o3)c2)cc1,40.1
4,NC(N)=NS(=O)(=O)c1ccc(NC(=S)NC(=O)/C=C/c2ccc(Br)cc2)cc1,-0.6
5,CCC1/C(=N\O)CC(c2ccco2)NC1c1ccco1 (centres undefined),3.9
6,CCC1=NN2C(=N)/C(=C/c3cccc(OCc4ccccc4F)c3)C(=O)N=C2S1,6.1
7,COc1ccc(CCNC(=O)Cc2ccc(Cl)cc2)cc1OC,-1
8,C=CCOc1ccc(/C=C2\C(=O)N(c3cccc(C(=O)O)c3)N=C2C)cc1OC,2.9
9,Cc1cc2nc(-c3cc(NC(=O)Cc4ccccc4)ccc3O)oc2cc1C,2.3
10,Cc1ccc(/C=C/C(=O)Nc2nc(-c3ccccc3)cs2)cc1,-7.3
11,N/C(=N\OC(=O)c1ccc([N+](=O)[O-])cc1Cl)c1cccc([N+](=O)[O-])c1,-6.4
12,COc1ccc2c(c1)cc(C(=O)NN)n2C,67.4
13,O=C(Oc1cccc([N+](=O)[O-])c1)c1ccc(-c2ccccc2)cc1,0.8
14,COc1ccc(NC(=S)NC(NC(=O)c2ccccc2F)C(Cl)(Cl)Cl)cc1 (centres undefined),1
15,COc1ccccc1NC(=O)C1(c2ccccc2)CCOCC1,-5.7
16,COc1c(OC(C)=O)ccc(/C=N\NC(=O)COc2cccc(Cl)c2)c1[N+](=O)[O-],2.4
17,CCN(CC)S(=O)(=O)c1ccc(Cl)c(C(=O)Nc2cccc(F)c2)c1,2.8
18,O=C(Nc1ccc(N2CCOCC2)cc1)c1ccccc1F,13.1
19,CC(=O)C1=C(O)C(=O)N(CCN(C)C)C1c1ccccc1[N+](=O)[O-] (centres undefined),-3.6
20,CCOCCOC(=O)C1=C(C)NC2=C(C(=O)CCC2)C1c1cccc(OC)c1OC (centres undefined),8.6
21,C=CCOc1ccc(/C=C2\C(=O)NC(=O)N(c3cc(C)cc(C)c3)C2=O)cc1,-11.2
22,Cc1ccc(NC(=O)c2cc(NC(=O)c3ccccc3)cc(NC(=O)c3ccccc3)c2)cc1,10.5
23,CCOC(=O)c1sc(NC(=O)c2ccc(C)cc2)c(C(=O)OCC)c1C,-0.3

row,SMILES,displacement [%]
1,CC(NC(=O)CN(c1ccc(Br)cc1)S(C)(=O)=O)c1ccccc1 (centres undefined),3.4
2,CN(C)c1ccc(C2CC(=O)NC3=C2C(=O)CC(C)(C)C3)cc1 (centres undefined),3.9
3,O=C(N[C@@H]1CSC/C1=N\O)c1ccccc1,3.5
4,COc1ccc(/C=C/C(=O)n2nc(C)cc2C)cc1OC,1.4
5,O=C(O)c1ccc(NS(=O)(=O)c2cccs2)cc1,-1
6,CCc1ccc2oc(-c3cccc(NC(=O)COc4ccc(OC)cc4)c3)nc2c1,10.1
7,CCOC(=O)C1=C(C)N=c2s/c(=C\c3ccc(OC)cc3OC)c(=O)n2C1/C=C/c1ccccc1 (centres undefined),7.5
8,COCCOC(=O)C1=C(C)N(C)C(=O)NC1c1ccc(Br)cc1 (centres undefined),-8.1
9,NC(=O)C1CCCc2c1[nH]c1ccccc21 (centres undefined),13.2
10,COc1ccc(OC)c(NC(=O)CCc2ccccc2)c1,2.7
11,O=C(c1ccc(N2CCN(C(=O)c3ccc(F)cc3)CC2)cc1)c1cccc(F)c1,-6.4
12,CC(C)=C1C2CCC1C(C(=O)NCCC1=CCCCC1)C2C(=O)O (centres undefined),0.7
13,COc1cc(/C=N/Nc2ccc3ccccc3n2)cc(Br)c1O,9.9
14,Cc1ccc(Cl)cc1NC(=O)CSC(N)=O,5.7
15,Cc1cc(Cl)cc(C)c1OCCOCCN1CCN(C)CC1,-7.2
16,CN(C)S(=O)(=O)NCCNc1ccc([N+](=O)[O-])cc1,-6
17,CCOc1cc(/C=C2/SC(=S)N(C)C2=O)ccc1OC(=O)c1ccc(F)cc1,13.6
18,CC(=O)c1c(C)nn2c3ccccc3n(C)c12,-16
19,Cc1c(OCc2ccccc2)ccc2c3c(c(=O)oc12)CCC3,12
20,NNC(=O)c1cc(C(=O)O)nc2ccc(Br)cc12,0.1
21,CC(=O)OCC12COC(C)C(C1)C(C)=CC2C (centres undefined),17.9
22,Fc1ccc(-c2nnc(-c3ccc(Br)o3)o2)cc1,-6.5
23,COc1ccc(Cn2c(O)c(/C=C3\C=CC=N3)c(=O)[nH]c2=O)cc1,12.5
